Out of some 310,000 compounds screened, about 2,200 (0.71%) showed an effect of 50% or more. The effect is printed as a negative number. The list shows a part of the results.
Molecular target: human ether-à-go-go-related gene (hERG) potassium channel (human, UniProt Q12809)
Test: primary screen, population patch clamp on CHO cells stably expressing hERG

Sequence of human ether-à-go-go-related gene (hERG) potassium channel (Q12809 whole entry, looked up): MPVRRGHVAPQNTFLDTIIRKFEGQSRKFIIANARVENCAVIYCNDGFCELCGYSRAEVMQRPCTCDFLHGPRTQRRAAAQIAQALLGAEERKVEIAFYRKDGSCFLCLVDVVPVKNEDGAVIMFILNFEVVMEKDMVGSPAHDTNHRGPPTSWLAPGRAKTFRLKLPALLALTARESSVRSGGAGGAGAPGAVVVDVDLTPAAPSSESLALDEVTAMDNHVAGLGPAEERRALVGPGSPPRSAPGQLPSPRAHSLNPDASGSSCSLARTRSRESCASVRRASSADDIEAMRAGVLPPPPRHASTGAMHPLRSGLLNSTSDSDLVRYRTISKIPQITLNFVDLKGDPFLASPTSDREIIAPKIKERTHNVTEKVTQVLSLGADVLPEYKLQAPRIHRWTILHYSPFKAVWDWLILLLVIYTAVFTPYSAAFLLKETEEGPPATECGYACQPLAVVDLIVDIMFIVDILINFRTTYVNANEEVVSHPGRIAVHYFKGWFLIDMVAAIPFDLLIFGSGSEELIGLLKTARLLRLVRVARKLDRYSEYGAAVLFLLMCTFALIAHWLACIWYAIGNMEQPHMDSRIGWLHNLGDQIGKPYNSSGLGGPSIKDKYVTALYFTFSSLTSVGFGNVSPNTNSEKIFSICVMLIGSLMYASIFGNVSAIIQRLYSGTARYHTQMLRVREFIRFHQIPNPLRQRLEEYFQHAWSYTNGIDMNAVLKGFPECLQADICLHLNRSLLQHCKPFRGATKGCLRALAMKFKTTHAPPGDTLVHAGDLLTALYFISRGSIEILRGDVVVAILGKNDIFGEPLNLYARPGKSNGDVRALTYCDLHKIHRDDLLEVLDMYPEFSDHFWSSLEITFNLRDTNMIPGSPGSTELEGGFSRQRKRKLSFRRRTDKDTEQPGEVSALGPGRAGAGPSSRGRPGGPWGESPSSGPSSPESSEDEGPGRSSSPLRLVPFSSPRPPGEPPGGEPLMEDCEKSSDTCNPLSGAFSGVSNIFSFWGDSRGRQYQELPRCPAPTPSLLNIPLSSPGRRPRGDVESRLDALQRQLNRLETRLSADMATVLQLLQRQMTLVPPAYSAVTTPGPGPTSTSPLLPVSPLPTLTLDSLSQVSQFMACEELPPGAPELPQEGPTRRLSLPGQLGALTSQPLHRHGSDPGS

In order of rising “hERG current change (%, negative = inhibition) at 1uM” value:
1. O=C(NCC1CCCCC1)C1(CC2CC(c3ccc(Cl)cc3)=NO2)CCNCC1 (stereo not drawn)  -12.9%
2. CSc1ccc(-c2c(C#N)c(N)nc3c2CCCC3)cc1  -9.73%
3. CCOc1ccc2cc(S(=O)(=O)N3CCN(C)CC3)ccc2c1  -6.94%
4. Cc1ccc2cc3cc(C(=O)N4CCN(C(=O)c5ccco5)CC4)sc3nc2c1  -5.31%
5. COc1cccc(NC(=S)NC(=O)c2c(Cl)c(C)nn2C)c1  -4.49%
6. Cc1cc(NC(=O)CCSc2ccc(Cl)cc2)no1  -3.81%
7. C=CCNC(=O)C1CCCN(S(=O)(=O)c2ccc(-n3cnnn3)cc2)C1 (stereo not drawn)  -3.3%
8. CCn1c(=O)cc(OCC(=O)N(C)c2ccccc2F)c2ccccc21  -0.742%
9. COCCNCCCOc1ccc(C)cc1Br  0.877%
10. CCCOc1cccc(NC(=O)OC2CCN(C)CC2)c1.O=C(O)/C=C/C(=O)O  1.42%
11. COc1ccc(N2C(=O)CC(Nc3ccc(C)cc3)C2=O)cc1 (stereo not drawn)  1.81%
12. Cc1ccc(S(=O)(=O)CCC(=O)OCC(=O)NCCc2ccc(S(N)(=O)=O)cc2)cc1  2.28%
13. CCOc1ccc(-n2c(O)c(/C=N/Nc3nnc(C)c(=O)[nH]3)c3ccccc3c2=O)cc1  3%
14. CNc1nc(SCC(=O)Nc2ccc(Cl)c(Cl)c2)nc(N2CCOCC2)n1  3.02%
15. Cc1ccc(Nc2nnc(SCC(=O)Nc3cccnc3Cl)s2)cc1C  3.22%
16. CCOC(=O)C1=C(C)N=C2SC(C)C(=O)N2C1c1ccccc1 (stereo not drawn)  3.4%
17. Cc1ccc(NC(=O)CSc2nn3c(=O)c(C)nnc3s2)cc1Cl  3.57%
18. CN(C)c1nnnn1-c1ccc(Cl)cc1Cl  4.61%
19. CCc1ccc(C(=O)C(C)OC(=O)c2nn(C)c(=O)c3ccccc23)cc1 (stereo not drawn)  6.2%
20. CN(C)N1C(=O)CC(NNC(=O)c2ccncc2)C1=O (stereo not drawn)  6.24%
21. COc1ccc(NC(=O)COC(=O)c2ccc(Cl)c(S(N)(=O)=O)c2)c([N+](=O)[O-])c1  6.47%
22. CCOC(=O)c1cc(C#N)c(N2CCCNCC2)nc1C(F)(F)F  6.49%
23. O=c1[nH]c(SCc2ccccc2[N+](=O)[O-])nc2nc[nH]c12  6.62%
24. O=C(COc1cccc(-n2cnnn2)c1)NCCC1=CCCCC1  6.68%
25. C/C=C/c1ccc(OCCCCN(C)Cc2ccccc2)c(OC)c1.O=C(O)C(=O)O  6.83%
26. C=CCNC(=O)/C(C#N)=C/c1c(N2CCN(c3ccccc3)CC2)nc2c(C)cccn2c1=O  6.84%
27. CCCNC(=O)N1CCC(c2ccc3c(c2)OCO3)CC1  7.16%
28. N/C(=N\OC(=O)c1ccc(Cl)cc1[N+](=O)[O-])c1cccnc1  7.58%
29. CCOC(=O)C1CCN(C(=O)COC(=O)c2ccc3[nH]c4c(c3c2)CCCC4)CC1  7.65%
30. CCO[C@H]1OC(C(=O)NC2CC2)=C[C@@H](c2ccc3c(c2)OCO3)[C@@H]1CCCO  7.75%
31. COc1cccc(CN2C(=O)C3(C(C#N)=C(N)OC4=C3C(=O)CCC4)c3ccccc32)c1 (stereo not drawn)  7.85%
32. COc1cccc(C2NC(=O)c3sc(=S)n(-c4ccccc4)c3N2)c1 (stereo not drawn)  8.07%
33. Cc1cccc(/C=C2\Oc3cc(OS(C)(=O)=O)ccc3C2=O)c1  8.42%
34. COc1ccc(NC(=O)c2cc3ccccc3cc2OC)cc1  8.57%
35. N#CC12CCCCC1CC1CCCCC1(C#N)N2CCO (stereo not drawn)  9.07%
36. CC1=C(C(=O)Nc2ccc(F)cc2)C(c2cccc(C)c2)n2nc(CCCO)nc2N1 (stereo not drawn)  9.17%
37. CCCNC(=S)N1CCN(C(c2ccccc2)c2ccccc2)CC1  9.6%
38. CCc1cccc(CC)c1NC(=O)CSc1nnc(C2CC2)n1C  9.93%
39. Cc1cc(C)nc(SCC(=O)Nc2ccc(Br)cn2)n1  10.6%
40. O=C(CC1CCOCC1)Nc1ccc(Cl)c(Cl)c1  10.6%
41. CCN(CC)S(=O)(=O)c1ccc(OC)c(NC(=O)COc2ccc3c(C)cc(=O)oc3c2)c1  12.1%
42. O=C(N/N=C/c1ccc(Br)s1)c1c[nH]c2ccccc12  12.3%
43. COc1ccc(-c2ocnc2C(=O)NCc2nn(-c3ccccc3)nc2C)cc1  12.6%
44. O=C(NCCCN1CCCC1=O)c1ccccc1NS(=O)(=O)c1ccc(F)cc1  13%
45. Cc1cnn(C2CCN(C)CC2)c1N  13.1%
46. O=C(c1ccc(Cn2cnnn2)cc1)N1CCCC(Nc2ccc(F)c(F)c2)C1 (stereo not drawn)  13.4%
47. Fc1cc(F)cc(NC(=S)N2CCC(c3ccccc3)C2)c1 (stereo not drawn)  13.5%
48. CC(CO)N1CCS(=O)(=O)CC1 (stereo not drawn)  13.7%
49. CCOC(=O)C1=C(C)NC(=O)NC1/C=C\c1ccccc1 (stereo not drawn)  15%
50. COc1ccccc1OCc1nnc(SCC(=O)Nc2ccc(N3CCOCC3)cc2)n1C  15.1%
51. Cc1ccc(SCC(=O)NNC(=O)c2ccccc2)c(C)c1  15.7%
52. O=C(Cn1ncc2c3ccccc3n(Cc3ccc(F)cc3)c2c1=O)N1CCN(c2ncccn2)CC1  16.2%
53. COc1cc(C(=O)N(Cc2ccccc2)c2cccc(C)c2)ccc1OC(F)F  16.3%
54. COc1ccccc1OCCOc1ccc(/C=C2\C(=N)N3N=C(C)SC3=NC2=O)cc1  16.9%
55. CC(C)[C@H](NC(=O)CCn1nnc2ccccc2c1=O)C(=O)O  17.3%
56. CCCCc1nc2ccccc2c(=O)n1-c1ccc(Cl)cc1[N+](=O)[O-]  20.8%
57. Cc1ccc(S(=O)(=O)CC(=O)NC(C)(C)C)cc1  20.9%
